Screen size: about 71,000 compounds; about 1,400 (2%) were called active. The inconclusive results got no clear call from the source; some entries with a clear call stand among them for comparison. The call rests on the fitted dose curve; in most records, active means well fitted curve in the direction sought with a large enough effect; inconclusive means small, poorly fitted or top-dose-only effect; inactive means no such curve, though single readings can be large or run the other way. Potencies beside an inconclusive call are fits to weak or partial responses and may not hold up.
The compounds below were run against Microtubule-associated protein tau (Homo sapiens) (UniProt P10636) (assay: qHTS Assay for Tau Filament Binding). Conditions: recombinant tau filaments, thioflavin S fluorescence, 15 h, filaments grown with octadecylsulfate alongside compound; series mostly up to 57.1 µM.
UniProt P10636, sequence (P10636 whole entry, looked up): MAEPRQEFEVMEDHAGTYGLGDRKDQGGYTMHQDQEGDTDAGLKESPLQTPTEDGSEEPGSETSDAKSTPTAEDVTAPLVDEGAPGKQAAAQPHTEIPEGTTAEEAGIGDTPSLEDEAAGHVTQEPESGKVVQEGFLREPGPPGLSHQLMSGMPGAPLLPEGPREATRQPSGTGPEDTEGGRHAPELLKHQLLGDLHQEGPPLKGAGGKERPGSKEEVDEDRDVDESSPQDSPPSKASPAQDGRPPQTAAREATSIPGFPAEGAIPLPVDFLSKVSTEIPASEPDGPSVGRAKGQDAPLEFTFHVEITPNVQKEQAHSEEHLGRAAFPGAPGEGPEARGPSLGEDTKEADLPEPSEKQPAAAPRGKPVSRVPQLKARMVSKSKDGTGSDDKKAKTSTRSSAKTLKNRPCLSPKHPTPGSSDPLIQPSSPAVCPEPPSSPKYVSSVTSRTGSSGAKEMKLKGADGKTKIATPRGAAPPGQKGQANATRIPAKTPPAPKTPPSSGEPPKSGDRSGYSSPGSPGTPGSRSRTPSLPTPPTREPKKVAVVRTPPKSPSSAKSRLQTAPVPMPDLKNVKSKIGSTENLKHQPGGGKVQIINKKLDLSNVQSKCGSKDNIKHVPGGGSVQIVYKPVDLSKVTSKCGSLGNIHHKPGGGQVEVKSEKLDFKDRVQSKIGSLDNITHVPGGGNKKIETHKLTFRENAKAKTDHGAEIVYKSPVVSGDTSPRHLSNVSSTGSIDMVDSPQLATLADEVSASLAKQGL
Summary of the method: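 His-tagged recombinant human tau (exons 2, 3, 10; 1 uM final) fibrillized with 30 uM sodium octadecylsulfate, 15 h at 37 C, in pH 7.4 HEPES buffer with 10 uM thioflavine S and 5 mM DTT. Reduced ThS fluorescence (450/510 nm) marks activity.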
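Further: actives lower thioflavin S fluorescence by blocking filaments or displacing dye.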
On the % scale 0 is the no-effect control and ±100 the full control effect; potency means the concentration at half of the fitted maximal effect.

SMILES | Potency | activity change, negative = inhibition
COc1cc(-c2nnc3sc(-c4ccco4)nn23)cc(OC)c1OC | inactive | –
CCOC(=O)Cc1csc(SCC(=O)N2CCN(c3ccc(OC)cc3)CC2)n1 | inconclusive: 31.6 µM [decreasing] | –
Cn1c(SCC(=O)Nc2ccc(N3CCOCC3)c(Cl)c2)nnc1-c1ccccc1 | active: 10 µM | –
CC(C)(C)C(=O)Nc1c2c(nc3c1CCC3)CCCC2 | inconclusive: 31.6 µM [decreasing] | –
COc1ccc(-c2coc3cc(O[C@@H]4O[C@@H](CO)[C@@H](O)[C@@H](O)[C@H]4O)cc(O)c3c2=O)cc1 | inconclusive: 39.8 µM [decreasing] | –
CCOC(=O)c1ccc(CNC(=O)c2cc3cccc(OC)c3oc2=O)o1 | inactive | –
C[C@H]1CCCC2(CC[N+](C)(CCC[N+](C)(C)C)CC2)C1 (some centres not stated) | – | inactive: -0.3% [at 11.4 µM]
COc1ccccc1NC(=O)N1CCN(c2cccc(C(F)(F)F)c2)CC1 | inactive | –
Cc1ccccc1Cn1ccc(NC(=O)c2cnn3c(C(F)(F)F)cc(-c4ccco4)nc23)n1 | active: 2.51 µM | –
CCCNC(=O)c1cc(-c2ccc(O)cc2)on1 | inactive | –
CCCCn1c(NC(=O)c2ccccc2)c(C#N)c2nc3ccccc3nc21 | inconclusive: 3.16 µM [decreasing] | –
COc1ccc(OC)c(C2C(C#N)=C(N)Oc3c2c(C)nn3-c2cccc(Cl)c2)c1 (configuration not stated) | inconclusive: 25.1 µM [decreasing] | –
CCN(CC)c1ccc(NC(=O)CCCCCN2C(=O)c3ccccc3C2=O)cc1 | inconclusive: 31.6 µM [decreasing] | –
O=C(CSc1nc(-c2ccccc2)cc(=O)[nH]1)N1CCOCC1 | inconclusive: 7.94 µM [decreasing] | –
C=CC1=C(C)C2=Cc3c(C=C)c(C)c4[n]3[Sn+2][n]3c(c(C)c(CCC(=O)O)c3=CC3=NC(=C4)C(C)=C3CCC(=O)O)=CC1=N2 | inconclusive: 39.8 µM [decreasing] | –
Cc1cc(C(=O)c2cccs2)c(N)s1 | inconclusive: 39.8 µM [decreasing] | –
O[C@H]([C@H](O)[C@@H](O)c1nc2ccccc2[nH]1)[C@@H](O)c1nc2ccccc2[nH]1 | – | inactive: 5.9% [at 11.4 µM]
COc1ccc(CNC2CCCCC2C)c(OC)c1 (configuration not stated) | inactive | –
O=C1CC(C(=O)Nc2ccccc2)C2(CCCC2)O1 (configuration not stated) | inactive | –
S=c1nc(C2CCCCC2)[nH][nH]1 | inactive | –
O=C(c1ccco1)N1CCC2(CC1)CCN(c1ccccc1)CC2 | inconclusive: 20 µM [decreasing] | –
CSC1=N/C(=C\c2ccc(C)o2)C(=O)S1 | inconclusive: 25.1 µM [decreasing] | –
